# Laboratory results reported in PubChem BioAssay AID624296 (National Center for Advancing Translational Sciences (NCATS), 2012).
# Hit rate of the full screen: of about 350,000 compounds, about 9,900 (2.8%) were called active. The inconclusive results got no clear call from the source; some entries with a clear call stand among them for comparison. The call rests on the fitted dose curve; in most records, active means well fitted activation curve with a large enough effect; inconclusive means small, poorly fitted or top-dose-only effect; inactive means no such curve, though single readings can be large or run the other way. Potencies of inconclusive entries are left out as doubtful fits.
# Assay: A quantitative high throughput screen for small molecules that induce DNA re-replication in MCF 10a normal breast cells. Further: nearly all actives have a fitted effect of over 50% in size. On activity, positive = re-replication: % of control where 0% means no effect.
# Conditions: MCF 10A DNA re-replication, Hoechst nuclear intensity, 48 h; activity, positive = re-replication: at 46.1 µM (top of the series)
# Potency means the concentration at half of the fitted maximal effect; tags describe the fitted curve by direction and shape.
Structure (SMILES),Potency,"activity, positive = re-replication"
O=C(NCCCN1CCOCC1)c1ccc(S(=O)(=O)N2CCOCC2)cc1,"inconclusive [activator, single point]",
CCc1cc(C(=O)N2CCCC(N3CCN(c4cccc(C(F)(F)F)c4)CC3)C2)n(C)n1 (stereo unspecified),"inconclusive [activator, full curve]",
COc1ccc(C(=O)OCC(=O)Nc2ccc3c(c2)OCO3)cc1S(=O)(=O)N1CCOCC1,"inconclusive [activator, single point]",
CC(C)(C)OC(=O)N1CCCC(C(=O)Nc2cccc(C(=O)N3CCCC3)c2)C1 (stereo unspecified),,inactive: 4.05%
O=C(Cn1cnc2c(nnn2Cc2ccc(F)cc2)c1=O)NCc1ccc(F)cc1,"inconclusive [activator, single point]",
O=[N+]([O-])c1ccc(COc2cccnc2)cc1,,inactive: -5.06%
CN1CCc2c(sc(/N=C/c3c[nH]c4ccccc34)c2C#N)C1,"inconclusive [activator, single point]",
CCOc1cc(-c2nc(-c3ccccc3)c(-c3cc([N+](=O)[O-])ccc3C)[nH]2)ccc1O,,inactive: 5.49%
O=S(=O)(c1cccc(C(F)(F)F)c1)N1CCC(c2nc3ccccc3[nH]2)CC1,"inconclusive [activator, partial curve, poor fit]",
CCNC(=S)N/N=C/c1cn(Cc2ccc(F)cc2)c2ccccc12,"inconclusive [activator, single point]",
Cc1ccc(S(=O)(=O)Nc2cc(C)c(O)c(Sc3n[nH]c(C)n3)c2)cc1,"inconclusive [activator, single point]",
Cc1cccc(CN2CCc3c(OCC(=O)N4CCCc5ccccc54)cccc3C2=O)c1,"inconclusive [activator, single point]",
CC(C)c1onc(C(=O)N2CCN(c3ccc(F)cc3)CC2)c1[N+](=O)[O-],,inactive: -0.182%
Cn1cnc2cc(NCc3ccccc3O)ccc21,,inactive: 3.41%
Cc1nc(-c2ccc(Cl)cc2)sc1C1(C)CC(c2ccc(Cl)cc2)=NO1 (stereo unspecified),"inconclusive [activator, partial curve, poor fit]",
CC1CN(c2oc(COc3ccc(Cl)cc3Cl)nc2C#N)CC(C)O1 (stereo unspecified),"inconclusive [activator, single point]",
COc1ccc(/C=N/NC(=O)c2cccs2)c2ccccc12,"inconclusive [activator, partial curve, poor fit]",
Cc1oc2c(CN3CCOCC3)c(O)ccc2c(=O)c1-c1ccc(Br)cc1,"inconclusive [activator, single point]",
CCOC(=O)/C(C#N)=C\c1ccc(N2CCN(C/C=C/c3ccccc3)CC2)cc1,"inconclusive [activator, single point]",
Cc1[nH]n(-c2nc(-c3ccc(Cl)cc3)cs2)c(=O)c1N=Nc1ccc(O)cc1,"inconclusive [activator, full curve, poor fit]",
COc1ccc(OC)c(Nc2nc3ccc(C)cc3n3cnnc23)c1,active: 18.4 µM,
O=C(Nc1ccccc1F)c1cnccn1,,inactive: -11.7%

Structure (SMILES),Potency,"activity, positive = re-replication"
C=CCC1C=CCC(CC=C)N1C(=O)c1ccccc1[N+](=O)[O-] (stereo unspecified),"inconclusive [activator, partial curve, poor fit]",
CC1CC(C)CN(C(=S)Nc2ccc3nc4n(c(=O)c3c2)CCCCC4)C1 (stereo unspecified),"inconclusive [activator, partial curve, poor fit]",
COc1cc(Br)cc(/C=N/NC(=O)Cc2ccccc2)c1O,"inconclusive [activator, partial curve, poor fit]",
O=Cc1ccc(OCC(=O)NCC2CCCO2)cc1 (stereo unspecified),,inactive: 2.88%
CCCCn1c(N)c(N(CC(C)C)C(=O)CSCc2ccc(Cl)c(Cl)c2)c(=O)[nH]c1=O,"inconclusive [activator, partial curve, poor fit]",
CCCOc1ccc(N2C(=O)CC(NCCCN3CCC(C(N)=O)CC3)C2=O)cc1 (stereo unspecified),,inactive: -5.74%
O=C(c1ccccc1)C1CCN(C(=O)Nc2ccccc2)CC1,"inconclusive [activator, full curve, poor fit]",
C[C@@H]1CN(C(=O)c2cc(COc3cccc(C(F)(F)F)c3)on2)C[C@H](C)O1,"inconclusive [activator, single point]",
CCOC(=O)c1cnc(-n2nc(C)cc2C)nc1NCc1ccccc1,active: 20.6 µM,
N#CC(C(=O)O)=C1CCCC1,"inconclusive [activator, partial curve, poor fit]",
COc1cccc2sc3cc(NCc4ccc5c(c4)OCO5)ccc3c(=O)c12,active: 4.11 µM,
O=C(Nc1nc(-c2cc3ccccc3oc2=O)cs1)c1ccc(Br)o1,"inconclusive [activator, single point]",
COc1cc(OC)c(C2SCCN2S(=O)(=O)c2ccc(F)cc2)cc1OC (stereo unspecified),"inconclusive [activator, partial curve, poor fit]",
Cc1ccc(CNC(=O)c2ccc3c(=O)c(O)c(-c4ccc(C)cc4)[nH]c3c2)cc1,"inconclusive [activator, single point]",
O=C(N/N=C/c1cccs1)c1cccnc1,,inactive: -2.51%
O=[N+]([O-])c1ccc(Cl)c(CN2CCCCCC2)c1,"inconclusive [activator, single point]",
O=C(NCc1cccnc1)c1ccc(NC(=O)c2ccc([N+](=O)[O-])cc2)cc1,,inactive: 14.4%
Cc1ccc(NC(=O)c2ccc3c(c2)CCN3S(C)(=O)=O)cc1C,"inconclusive [activator, single point]",
O=C(CCc1ccc(S(=O)(=O)NCc2ccccc2)cc1)N1CCN(Cc2ccc3c(c2)OCO3)CC1,"inconclusive [activator, partial curve, poor fit]",
Nc1nc2n(n1)C(c1ccco1)CC(c1ccc(Cl)cc1Cl)N2 (stereo unspecified),,inconclusive: 101% [activator]
Nc1cc2c(cc1Br)-c1ccccc1C2=NO,"inconclusive [activator, single point]",
C=CCOc1nc2c(c(=O)n(C)c(=O)n2C)n1Cc1ccccc1Cl,"inconclusive [activator, full curve, poor fit]",

Structure (SMILES),Potency,"activity, positive = re-replication"
COc1cc(O)cc(O)c1C(=O)/C=C/c1ccccc1,"inconclusive [activator, partial curve]",
O=C(Nc1ccccc1)c1ccc2nc(-c3ccco3)c(-c3ccco3)nc2c1,active: 11.6 µM,
Cc1c(Cl)c([N+](=O)[O-])nn1CCCC(=O)Nc1cccc(Cl)c1,,inactive: 4.6%
O=C(c1cc(-c2ccc(Br)cc2)n[nH]1)N1CCN(C(=O)c2ccccc2Br)CC1,"inconclusive [activator, single point]",
CC(C)(C)OC1NS(=O)(=O)OCC1NCOC(Cl)(Cl)Cl (stereo unspecified),"inconclusive [activator, single point]",
CCN(Cc1ccccc1)C(c1ccccn1)c1nnnn1C(C)(C)CC (stereo unspecified),"inconclusive [activator, partial curve, poor fit]",
COc1ccc(NC(=O)c2cc(-c3ccccn3)nc3c(C)cc(C)cc23)c(C)c1,active: 10.3 µM,
COc1ccc(CC(=O)Nc2cccc(-c3nnc(-c4ccc(C)cc4)o3)c2)cc1OC,"inconclusive [activator, single point]",
O=C(N/N=C/c1ccc([N+](=O)[O-])o1)c1cc(-c2cccc(Br)c2)nc2ccccc12,,inactive: 28.6%
Cc1c(C(=O)Nc2c(F)cccc2F)sc2ncnc(N3CCN(c4ccccc4)CC3)c12,"inconclusive [activator, full curve, poor fit]",
O=C(O)CCCCCN1C(=O)/C(=C\c2cn(-c3ccccc3)nc2-c2cccs2)SC1=S,"inconclusive [activator, full curve]",
CCOC(=O)C1=C(c2ccccc2)N=c2s/c(=C\c3ccco3)c(=O)n2C1c1cccs1 (stereo unspecified),,inactive: 0.0256%
COc1cccc(N(C(=O)CCl)C(C(=O)NCCc2ccccc2)c2cccs2)c1 (stereo unspecified),active: 16.4 µM,
COc1ccc(N2CCN(C(=O)c3cc(=O)c4cc(Cl)ccc4o3)CC2)cc1,,inactive: -0.608%
Cc1cccc(/C=c2\s/c(=C\C(=O)C(C)(C)C)[nH]c2=O)c1,"inconclusive [activator, single point]",
CC(=O)N1c2c(cc(Br)cc2S(=O)(=O)N2CCN(c3ccccn3)CC2)CC1C (stereo unspecified),"inconclusive [activator, full curve, poor fit]",
CCC(C)c1ccc(NC(=O)Nc2cccnc2)cc1 (stereo unspecified),,inactive: 7.72%
COc1ccc(S(=O)(=O)N2CCOCC2)cc1NC(=O)COc1ccccc1OC,"inconclusive [activator, partial curve, poor fit]",
COc1cccc(F)c1C(C[N+](=O)[O-])c1c(N)n(C)c(=O)n(C)c1=O (stereo unspecified),active: 7.31 µM,
Cc1ccc(Oc2cc(C)nc(-c3ccccc3O)n2)cc1,"inconclusive [activator, single point]",
N=c1n(Cc2ccccc2)c2ccccc2n1CC(O)c1ccccc1 (stereo unspecified),"inconclusive [activator, partial curve, poor fit]",
CC(C)(C)OC(=O)NCc1ccc(NC(=O)c2nc[nH]c2C(=O)NCCCCCCNC(=O)c2[nH]cnc2C(=O)Nc2ccc(CNC(=O)OC(C)(C)C)cc2)cc1,"inconclusive [activator, partial curve]",
